± gives the standard deviation of the averaged measurements. In all, about 33,000 sequences were measured (“E-score (dimensionless, -0.5 to 0.5)”: median about -0.046, highest 2% from about 0.36 on). This is one part of the list.
These sequences were tested on T1, SpTbr T-box DNA-binding domain (GST fusion) (assay: PBM E-score of 8-mer (E-score (dimensionless, -0.5 to 0.5)); Tbr is Tbrain of the sea star Patiria miniata (Pm) or the sea urchin Strongylocentrotus purpuratus (Sp); higher = stronger binding preference; most listed sequences are background and not binding sites). Conditions: the construct has about 5 more residues each side.
T1 sequence: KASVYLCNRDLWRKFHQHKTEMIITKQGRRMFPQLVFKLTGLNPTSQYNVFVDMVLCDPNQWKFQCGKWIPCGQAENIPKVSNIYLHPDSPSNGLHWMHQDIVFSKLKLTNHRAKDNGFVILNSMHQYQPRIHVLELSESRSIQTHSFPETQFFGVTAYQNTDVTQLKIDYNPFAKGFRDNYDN
Protocol: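 Universal protein-binding microarray (Agilent AMADID 016060, 60-bp probes with a 35-bp variable region) incubated with 200 nM GST-fused Strongylocentrotus purpuratus Tbr T-box DNA-binding domain (residues 362-554) in PBS pH 7.5. Scored for every ungapped 8-mer (given with its reverse complement) as E-score (range -0.5 to 0.5; >0.45 counts as bound) and Z-score of median probe intensity. Two replicate arrays (datasets 1 and 2).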
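Further: protein at 200 nM in PBS on universal double-stranded arrays.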

Sequence | PBM E-score of 8-mer
AGACCACT | -0.194 ± 0.038
AATAAGTC | -0.0923 ± 0.051
AACGGTTA | 0.03 ± 0.081
AACTTATT | -0.206 ± 0.059
ACACTAGC | 0.193 ± 0.0066
AACTGTAG | 0.00842 ± 0.0095
AAGTATCC | -0.152 ± 0.008
CGGACACG | 0.228 ± 0.0096
AAATACAA | -0.265 ± 0.013
CGGGGGTC | -0.137 ± 0.0072
CACTTCGC | 0.352 ± 0.018
GCCTGTAC | -0.167 ± 0.0039
CCGGCTCG | -0.242 ± 0.054
CGACGAGA | 0.0744 ± 0.0061
GGGAACCC | -0.0851 ± 0.0094
CATGAAAA | -0.243 ± 0.038
TACATCAA | -0.207 ± 0.033
AGATTTGG | -0.00302 ± 0.019
CCGACTCG | -0.112 ± 0.0083
CACAACCA | 0.133 ± 0.025
GAGTGGGC | -0.0471 ± 0.04
AATTCTGC | -0.0452 ± 0.0092
AAGCGGCG | 0.062 ± 0.05
CGTCATGA | -0.151 ± 0.033
ATACCGAG | -0.197 ± 0.0024

Sequence | PBM E-score of 8-mer
CTCATTTC | -0.299 ± 0.014
CGTGAACA | 0.3774 ± 0.003
AATTAGGC | -0.033 ± 0.032
ATATGTGC | 0.1856 ± 0.001
ATTTGCCC | -0.177 ± 0.017
ACTGGTAC | -0.0857 ± 0.01
ACGAGGTC | -0.114 ± 0.018
ACCCGAAA | 0.152 ± 0.015
GGGTATTA | -0.038 ± 0.048
CATAGAGG | -0.0393 ± 0.019
GCGGGTAA | 0.146 ± 0.0046
AGCATTAT | 0.00754 ± 0.061
GGCCGTAC | -0.249 ± 0.0084
CAGTCATC | -0.0362 ± 0.012
CCACCTGC | 0.269 ± 0.0095
CCTTTCTC | 0.0185 ± 0.0011
CGTACCGA | -0.156 ± 0.052
ACAAACAA | -0.066 ± 0.0099
CTGCATCC | -0.245 ± 0.0093
ATATATTC | -0.271 ± 0.025
CCTAATTA | -0.0287 ± 0.015
CCCCCATC | -0.0563 ± 0.053
GTCCTTAA | -0.269 ± 0.0087
AATCCGGC | -0.0346 ± 0.0085
TAGGTCAA | -0.2271 ± 0.0022

Sequence | PBM E-score of 8-mer
CGTAATAG | -0.105 ± 0.022
ATAGTCTA | -0.144 ± 0.052
TCCGTCCA | -0.0554 ± 0.01
GATCGAAC | -0.035 ± 0.014
CAAGTTTA | 0.0965 ± 0.048
GCGGTTAC | -0.06 ± 0.068
CCCAGTGC | -0.0903 ± 0.0083
GTTTTGCA | -0.0412 ± 0.044
GAGCTTCA | -0.236 ± 0.036
AGTTTCTG | -0.0851 ± 0.074
AGCTCTCA | 0.115 ± 0.032
CGAACGAA | -0.111 ± 0.06
GTTTAGTA | -0.333 ± 0.012
AAGCTCTG | -0.183 ± 0.027
CTAAGCAA | 0.038 ± 0.0066
ACGAATTG | 0.0276 ± 0.0015
GCTGAGGA | 0.0171 ± 0.038
ACGGTTAG | -0.0126 ± 0.093
TAACAGCA | 0.0439 ± 0.019
AGGAATGC | -0.142 ± 0.024
AATCCGAG | -0.0447 ± 0.06
AACAGCAC | 0.202 ± 0.046
GGCCTTGA | -0.26 ± 0.019
TCTTTCAA | -0.252 ± 0.024
CTTTGACC | -0.13 ± 0.05

Sequence | PBM E-score of 8-mer
ACGTACCA | -0.143 ± 0.039
AATCTCTC | -0.1 ± 0.11
GCATCGGA | -0.138 ± 0.017
CGGATTCA | -0.0393 ± 0.016
GTAGTGGA | -0.102 ± 0.053
ACCACTCG | 0.101 ± 0.024
CCCTCCTC | -0.0298 ± 0.012
AGTCTTTG | -0.0972 ± 0.0089
ATAGCAGC | 0.0931 ± 0.011
AAATAAGT | -0.0288 ± 0.062
ACCCTAGC | -0.0995 ± 0.029
ATACATAC | -0.103 ± 0.013
AACTACAT | -0.0413 ± 0.043
ACTTCTAT | -0.0218 ± 0.0071
CCTCCAGG | -0.242 ± 0.0033
ATGCACGA | -0.0775 ± 0.11
CACAAACC | -0.19 ± 0.028
CTCAGGAC | -0.222 ± 0.031
ACATTCCT | -0.222 ± 0.0064
CATCTCTA | -0.0506 ± 0.074
AAGAACCG | -0.0168 ± 0.063
GACCGCAA | -0.142 ± 0.035
GCGGTTCA | 0.1741 ± 0.0011
GCAACCTA | 0.158 ± 0.058
CCCCCAAG | 0.0998 ± 0.036

Sequence | PBM E-score of 8-mer
AGCCGAAC | -0.0757 ± 0.063
CCAGCACG | 0.205 ± 0.032
GCCAAAAA | -0.0953 ± 0.034
ATAAACAC | 0.293 ± 0.034
CGCCGATC | -0.0602 ± 0.07
TGGGACAA | -0.109 ± 0.004
ACGAACAG | 0.0154 ± 0.16
ACGATCTG | 0.144 ± 0.042
AGCAGGGC | -0.297 ± 0.019
GCACCGCC | 0.0994 ± 0.15
GCATGAAA | -0.0438 ± 0.023
CGCCCTGA | -0.0239 ± 0.0077
CTGGTATC | -0.2 ± 0.12
AAGACATT | -0.167 ± 0.06
GATCGGTA | -0.135 ± 0.031
ACATGGAG | -0.122 ± 0.03
GAGCTCCA | -0.209 ± 0.034
ATAATTAA | -0.0627 ± 0.08
AGCATCAC | 0.197 ± 0.0061
ACAAGTGT | 0.381 ± 0.019
ACTACCTG | 0.0617 ± 0.013
GAGTGGCA | 0.199 ± 0.044
AGTCTCAA | 0.00675 ± 0.073
GTACACAC | 0.237 ± 0.018
CAGCCACG | 0.196 ± 0.035

Sequence | PBM E-score of 8-mer
ACAAGGCA | -0.091 ± 0.044
GTGGCGGA | 0.163 ± 0.049
CCTTGGAA | -0.137 ± 0.011
AGGATACA | -0.0566 ± 0.059
AAACTCTT | -0.161 ± 0.018
GACAAGGA | -0.0645 ± 0.017
CTAGTGCC | 0.0231 ± 0.067
AGAAATCC | -0.13 ± 0.034
AGGGATTA | -0.0888 ± 0.03
AATCCGTC | -0.0788 ± 0.035
CGAAGAAG | 0.0515 ± 0.035
ACCCAAGC | -0.238 ± 0.036
GAACGGGA | -0.101 ± 0.059
CCTGAGCA | -0.0674 ± 0.018
ACTACCAC | -0.0193 ± 0.054
ATTGAGAA | 0.00754 ± 0.1
ACCGTCGA | 0.0295 ± 0.02
GGCGTAAA | 0.215 ± 0.093
ACCTGTCG | 0.37 ± 0.011
CGTCGAAG | 0.0761 ± 0.022
CGTCCATC | -0.2454 ± 0.0015
CGAAGATC | 0.0347 ± 0.0039
AGTGGTAA | 0.123 ± 0.0042
TGACTAAA | -0.0967 ± 0.036
CTAAATAC | -0.0239 ± 0.037

Sequence | PBM E-score of 8-mer
CTTGATGA | 0.0805 ± 0.032
TGGGCCCA | -0.277 ± 0.054
TAACCAAA | -0.211 ± 0.055
AAAAGGCT | -0.113 ± 0.038
ACTAGGTA | -0.0768 ± 0.014
CCGACATA | -0.00631 ± 0.021
ACATTGCT | 0.124 ± 0.025
CGGTCCTA | -0.206 ± 0.017
TGGGGAAA | 0.0585 ± 0.011
AATTCTAA | -0.217 ± 0.049
CTTGTTGA | 0.174 ± 0.02
AAACATCG | -0.0785 ± 0.0083
CATAAAAA | -0.195 ± 0.089
CCTAAATC | 0.0624 ± 0.1
GGATTCAA | -0.285 ± 0.039
CAGCATAA | -0.222 ± 0.0034
TAGCCACA | 0.153 ± 0.059
TCTTCCAA | -0.156 ± 0.023
GACGAGGC | 0.0588 ± 0.057
AACACCTT | 0.479 ± 0.0049
AGTAGACT | -0.0251 ± 0.059
GAATACTA | -0.167 ± 0.03

Reference: the supplement of paper PMC4166925
